Test results from PubChem BioAssay AID504332 (National Center for Advancing Translational Sciences (NCATS), 2011).
Screen size: about 350,000 compounds; about 31,000 (8.9%) were called active. Inconclusive means that the source gave no clear call. Such entries were picked first, then a sample of the others. Calls follow the shape of the dose curve; as a rule, active = well fitted inhibition curve with a large enough effect; inconclusive = small, poorly fitted or top-dose-only effect; inactive = no such curve, though single readings can be large or run the other way. Potencies beside an inconclusive call are fits to weak or partial responses and may not hold up.

The molecules below were run against Histone-lysine N-methyltransferase EHMT2 (Homo sapiens) (UniProt Q96KQ7) (assay: qHTS Assay for Inhibitors of Histone Lysine Methyltransferase G9a). Conditions: G9a H3K9 monomethylation, AlphaScreen, 2 h; activity, negative = inhibition: at 59 µM (top of the series) unless noted.
Procedure, shortened: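 AlphaScreen detection with an anti-monomethyl H3K9 antibody quantified product after a 2 h room-temperature reaction containing 500 nM biotinylated H3K9 peptide, 20 µM SAM and 20 nM enzyme, which had been preincubated 15 min with compound.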
% is scaled to controls: 0 for no effect and ±100 for the full control effect; potency is read from the fitted curve at half-maximal effect; tags tell the direction and shape of the fitted curve.
Also: nearly all actives have a fitted effect of over 75% in size.

UniProt Q96KQ7, sequence (Q96KQ7 whole entry, looked up): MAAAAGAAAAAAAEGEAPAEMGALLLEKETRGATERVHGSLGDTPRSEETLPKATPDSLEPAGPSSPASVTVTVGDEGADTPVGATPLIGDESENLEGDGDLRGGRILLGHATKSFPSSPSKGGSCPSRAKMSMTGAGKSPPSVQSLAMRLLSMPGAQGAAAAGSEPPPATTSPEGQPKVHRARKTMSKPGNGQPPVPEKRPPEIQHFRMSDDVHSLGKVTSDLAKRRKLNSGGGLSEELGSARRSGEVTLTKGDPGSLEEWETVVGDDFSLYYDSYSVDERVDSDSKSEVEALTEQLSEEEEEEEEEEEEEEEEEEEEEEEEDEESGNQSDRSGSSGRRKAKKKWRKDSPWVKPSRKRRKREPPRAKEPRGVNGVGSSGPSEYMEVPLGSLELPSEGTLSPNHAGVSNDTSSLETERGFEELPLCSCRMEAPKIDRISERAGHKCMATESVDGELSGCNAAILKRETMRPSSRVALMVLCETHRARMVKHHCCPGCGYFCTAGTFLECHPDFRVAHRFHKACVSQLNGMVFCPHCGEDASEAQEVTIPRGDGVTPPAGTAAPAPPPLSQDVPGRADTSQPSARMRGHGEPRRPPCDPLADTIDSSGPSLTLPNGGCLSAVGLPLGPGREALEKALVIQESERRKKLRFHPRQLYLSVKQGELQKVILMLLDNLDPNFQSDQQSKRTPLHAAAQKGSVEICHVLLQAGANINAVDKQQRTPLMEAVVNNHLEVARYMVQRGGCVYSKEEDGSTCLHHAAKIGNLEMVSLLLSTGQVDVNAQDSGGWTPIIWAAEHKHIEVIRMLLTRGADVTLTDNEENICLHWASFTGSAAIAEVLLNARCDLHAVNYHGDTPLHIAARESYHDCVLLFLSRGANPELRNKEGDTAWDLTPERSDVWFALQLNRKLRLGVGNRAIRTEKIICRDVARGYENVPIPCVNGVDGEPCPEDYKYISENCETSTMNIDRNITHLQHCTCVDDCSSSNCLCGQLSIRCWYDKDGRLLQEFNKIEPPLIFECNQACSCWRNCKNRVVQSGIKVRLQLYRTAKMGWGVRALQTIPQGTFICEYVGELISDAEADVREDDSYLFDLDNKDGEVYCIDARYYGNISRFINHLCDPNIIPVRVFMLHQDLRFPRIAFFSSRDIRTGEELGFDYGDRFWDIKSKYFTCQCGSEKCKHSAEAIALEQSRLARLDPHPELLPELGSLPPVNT

SMILES | Potency | activity, negative = inhibition
Cc1cc(-c2ccc(S(=O)(=O)NCc3ccccc3Cl)s2)on1 | inactive | –
CCOC(=O)/C=C1\Nc2ccccc2SC1=O | – | inactive: 14% [at 12.7 µM]
O=C(Cc1ccsc1)NNC(=O)c1ccccc1Cl | inactive | –
Cc1ccc(S(=O)(=O)N(C)/N=C/c2ccc(C(=O)O)cc2)cc1 | active: 44.7 µM | –
Oc1ccccc1/C=N/NC(=S)NC1CC2CCC1C2 (stereo not given) | inconclusive: 35.5 µM [inhibitor, partial curve, poor fit] | –
O=S(=O)(NC1CCCCC1Nc1ccccc1)c1ccccc1 (stereo not given) | inactive | –
O=C(C[n+]1ccc(C(=O)N/N=C/c2ccc(Cl)cc2Cl)cc1)c1ccccc1 | active: 50.1 µM | –
COc1ccnc(CN(C)C(=O)C2CCC(=O)N(Cc3cccc(C(F)(F)F)c3)C2)c1 (stereo not given) | inactive | –
COC(=O)CC1=C(C(=O)OC)C(c2ccncc2)C(C#N)=C(N)O1 (stereo not given) | – | inconclusive: -54.2% [inhibitor]
COc1ccc(-c2cc(=O)c3c(OC)c(OC)c(OC)c(OC)c3o2)cc1OC | inconclusive: 0.501 µM [inhibitor, full curve, poor fit] | –
N#C/C(=C/c1cn(CC(=O)O)c2ccccc12)C(=O)NCc1ccccc1 | active: 56.2 µM | –
Cc1cc(C)cc(OCC(=O)N/N=C/c2ccc([N+](=O)[O-])o2)c1 | inconclusive: 3.98 µM [inhibitor, full curve] | –
CCOc1ccc(-n2c(SCc3ccc([N+](=O)[O-])cc3)nnc2-c2ccccc2)cc1 | inconclusive: 11.2 µM [inhibitor, partial curve, poor fit] | –
CC1(C)CC(=O)c2c(oc3ccc(NS(=O)(=O)c4ccc(C(=O)O)cc4)cc23)C1 | inconclusive: 44.7 µM [inhibitor, partial curve, poor fit] | –
O=C(COc1ccc2ccccc2c1)NCC(=O)N/N=C/c1ccco1 | inconclusive: 15.8 µM [inhibitor, partial curve, poor fit] | –
CC1=C(C(=O)N2CCOCC2)C(c2ccsc2)C2=C(CCCC2=O)N1 (stereo not given) | – | inconclusive: -83.1% [inhibitor]
COc1ccccc1NC(=O)C1CCN(C(=O)C2CC(=O)N(c3ccc(C)cc3)C2)CC1 (stereo not given) | inactive | –
COc1ccc(/C=C2\CC/C(=C\c3ccc(OC)c(OC)c3)C2=O)cc1OC | inconclusive: 31.6 µM [inhibitor, single point] | –
Cc1cccc(OCC(=O)NCC(C)(C)N2CCOCC2)c1 | inactive | –
Cc1ccc(O)c(CP(=O)(c2ccccc2)c2ccccc2)c1 | inactive | –
CCC/C(O)=C1\C(=O)CC(C)(C)CC1=NCCO | inactive | –
COc1ccc(S(=O)(=O)N2CCC(C(=O)N3CCC(C(N)=O)CC3)CC2)cc1Cl | inactive | –
CSc1sccc1/C=C(/C#N)C(=O)c1ccco1 | inconclusive: 89.1 µM [inhibitor, single point] | –
COc1ccc2c(c1)cc1c(=O)n(CC(=O)NCc3ccco3)nc(C)n12 | inactive | –
COc1ccc(/C(O)=C2/C(=O)C(=O)N(CCN(C)C)C2c2ccccc2)cc1Cl (stereo not given) | – | inactive: -48.2% [at 12.7 µM]

SMILES | Potency | activity, negative = inhibition
Cn1c2ccccc2c2c(C(=O)N3CCN(c4ccc(F)cc4)CC3)cn(C3CCCC3)c(=O)c21 | – | inconclusive: -69.3% [inhibitor]
COc1ccc(-c2nnc3ccc(SCC(=O)N4CCCCCC4)nn23)cc1OC | inconclusive: 79.4 µM [inhibitor, partial curve, poor fit] | –
Cc1ccc(CN2CCCC(C(=O)N3CCCC3)C2)cc1 (stereo not given) | active: 10 µM | –
Cn1c(=O)n(C)c2cc([N+](=O)[O-])c(N3CCN(S(=O)(=O)c4ccc(C(C)(C)C)cc4)CC3)cc21 | inconclusive: 20 µM [inhibitor, full curve] | –
CC(C)(C)c1nnc(NC(=O)Cc2ccccc2[N+](=O)[O-])s1 | inconclusive: 35.5 µM [inhibitor, single point] | –
CN=CC1=C(O)c2ccccc2C1=O | inactive | –
O=C(Oc1ccccc1)N1CCC2(CC1)CCN(c1ccccc1)CC2 | – | inactive: 4.59% [at 12.7 µM]
CCOc1cc(C2C3=C(CC(C)(C)CC3=O)N(CCOC)C3=C2C(=O)CC(C)(C)C3)ccc1OC | inconclusive: 31.6 µM [inhibitor, single point] | –
CSc1ccc(CN(C)CC(=O)Nc2ccc(C)cc2Br)cc1 | inactive | –
O=C(CN1C(=O)/C(=C/c2ccc(Cl)cc2)SC1=S)NC1C=CS(=O)(=O)C1 (stereo not given) | inactive | –
CCCc1cc(-c2[nH]ncc2-c2ccc3c(c2)OCCCO3)c(O)cc1O | – | inactive: -19.4% [at 12.7 µM]
c1ccc(-c2nccc(-c3ccc(-n4cnc5ccccc54)cc3)n2)cc1 | – | inactive: 2.63% [at 12.7 µM]
O=S(=O)(c1ccc(N2CCC(c3ccc(Cl)cc3)=N2)cc1)N(CCO)CCO | inconclusive: 2.51 µM [inhibitor, full curve, poor fit] | –
CC(=O)Nc1ccc(NC(=O)COc2ccc(-c3ccc(C#N)cc3)cc2)cc1 | – | inactive: 1.42% [at 0.501 µM]
CCC(=O)N1CCc2cc(S(=O)(=O)NC(CC(C)C)C(=O)Nc3cc(C)ccc3OC)ccc21 (stereo not given) | inactive | –
CCCCC[C@H]1CN(Cc2ccc(OC)cc2)C(=O)[C@@H]1CC(=O)NCc1ccccc1 | inconclusive: 79.4 µM [inhibitor, single point] | –
CC(=O)c1c(C)[nH]c(C(=O)Nc2nc(-c3ccc(-c4ccccc4)cc3)cs2)c1C | inconclusive: 17.8 µM [inhibitor, partial curve, poor fit] | –
CCn1c(=O)c2cc(C(=O)N3CCOCC3)sc2c2ccccc21 | inactive | –
Cn1c(=O)[nH]c(=O)c2c1nc(SCC(=O)O)n2Cc1ccccc1 | active: 22.4 µM | –
CC(=O)/C(=N\Nc1ccc(C)cc1)N1CCOCC1 | active: 28.2 µM | –
CCn1nc(C)cc1C(=O)Sc1ccc(Cl)cc1Cl | inactive | –
CC1=C(C(=O)Nc2ccc(C)cc2C)C(c2ccc(O)cc2)n2nnnc2N1 (stereo not given) | inactive | –
O=C(NCCCN1CCOCC1)c1ccc2c(=O)n(Cc3ccc(Cl)cc3)c(=S)[nH]c2c1 | active: 7.08 µM | –
CCN(CC)S(=O)(=O)c1ccc(C(=O)/C=C/c2ccc(-c3ccc([N+](=O)[O-])cc3)o2)cc1 | – | inconclusive: -59.8% [inhibitor]
CCOc1ccccc1NC1=NCC(=O)N1Cc1ccc(F)cc1 | active: 50.1 µM | –

SMILES | Potency | activity, negative = inhibition
CCn1c(COc2ccc(Cl)cc2)nnc1SC1CCc2ccccc2C1=O (stereo not given) | inconclusive: 17.8 µM [inhibitor, single point] | –
O=C(c1ccco1)N1CCN(c2ncnc3c2[nH]c2ccc(Br)cc23)CC1 | inactive | –
O=[N+]([O-])c1cc(/C=N/N2CCCCC2)ccc1Cl | active: 44.7 µM | –
Cc1cccc(NC(=O)c2cnn(-c3ccc(F)cc3)c2C2CCNCC2)c1C | active: 35.5 µM | –
Nc1nc(-c2ccc(-n3nncc3-c3ccco3)cc2)cs1 | inactive | –
CC(C)CN(C(=O)CN1CCc2ccccc21)c1c(N)n(CC(C)C)c(=O)[nH]c1=O | inconclusive: 79.4 µM [inhibitor, single point] | –
Cc1ccccc1-c1nnc(SCC(=O)N2CCCC2)o1 | inactive | –
CC(C)CN1C(=O)/C(=C/c2cccs2)NC1=S | inconclusive: 35.5 µM [inhibitor, single point] | –
Cc1cc(C)c(S(=O)(=O)N2CCN(C(=O)C3CCCO3)CC2)c(C)c1 (stereo not given) | inconclusive: 8.91 µM [inhibitor, single point] | –
Cc1ccc(CNC(=O)CCc2c(C)nc3nc(CNC(=O)OC(C)(C)C)nn3c2C)cc1 | inactive | –
CCCC(=O)NC(=S)Nc1sc2c(c1C(N)=O)CCC2 | active: 7.94 µM | –
Cc1ccc(OCc2cc(C(=O)NC(C)Cc3cccc(C)n3)no2)cn1 (stereo not given) | – | inactive: 8.9% [at 0.501 µM]
CCC1c2ccc(C)n2CCN1C(=O)Nc1ccccc1OC (stereo not given) | inconclusive: 31.6 µM [inhibitor, single point] | –
COc1cc(/C=C/c2nc3ccccc3c(=O)[nH]2)cc(Cl)c1O | inconclusive: 89.1 µM [inhibitor, single point] | –
CCN(CC)c1ccc(NC(=O)CSc2nc3ccccc3c(=O)[nH]2)cc1 | inconclusive: 2.51 µM [inhibitor, partial curve, poor fit] | –
CCOC(=O)c1c(NC(C)=O)sc2c(O)c(Br)cc(Br)c12 | inconclusive: 3.55 µM [inhibitor, partial curve, poor fit] | –
O=C1CC(c2ccccc2)CN1Cc1ccccc1 (stereo not given) | inactive | –
C=CCN1C(=O)c2ccc(C(=O)OCC(=O)N3CCN(c4ccccc4)CC3)cc2C1=O | inconclusive: 70.8 µM [inhibitor, partial curve, poor fit] | –
Cc1ccc(Nc2nc(N)nc(CN3CCN(C(=O)c4ccco4)CC3)n2)cc1Cl | active: 50.1 µM | –
O=C(COc1ccccc1-c1nnc(-c2ccccc2)o1)Nc1ccc(Br)cc1F | inactive | –
CCC1Nc2ccccc2-c2nnc(SC)nc2O1 (stereo not given) | inconclusive: 25.1 µM [inhibitor, single point] | –
COc1cc(NS(=O)(=O)c2ccc(NC(=O)COc3ccccc3Cl)cc2)nc(OC)n1 | inconclusive: 89.1 µM [inhibitor, single point] | –
S=C(N=Nc1ccccc1)NNc1ccccc1 | active: 10 µM | –
Cc1c(NC(=O)c2ccc(N3CCCC3)c([N+](=O)[O-])c2)cccc1-c1nc2ccccc2s1 | inconclusive: 3.98 µM [inhibitor, partial curve, poor fit] | –
Cc1c(C(=O)NCC2CCCO2)oc2ccc(Br)cc12 (stereo not given) | inconclusive: 1.12 µM [inhibitor, full curve, poor fit] | –
